# Among all 320,000 compounds or so, about 7,600 (2.4%) were called active. The inconclusive results got no clear call from the source; some entries with a clear call stand among them for comparison. The call rests on the fitted dose curve; in most records, active means well fitted activation curve with a large enough effect; inconclusive means small, poorly fitted or top-dose-only effect; inactive means no such curve, though single readings can be large or run the other way. No potency is given beside an inconclusive call; the fits are too rough.
# Assay: qHTS Assay for NPC1 Promoter Activators; further: nearly all actives have a fitted effect of over 60% in size;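 on activation: reporter is driven by a mutant NPC1 promoter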
# Details: Huh7 NPC1 promoter luciferase reporter, 24 h; series mostly up to 9.22 µM
# Outline: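 Compounds in DMSO were transferred onto Huh7 NPC1-luciferase reporter cells pre-incubated 2 h; after 24 h at 37 °C, Amplite reagent was dispensed and luminescence recorded 10 min later.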
# Potency means the concentration at half of the fitted maximal effect; tags describe the fitted curve by direction and shape.
row,Compound,Potency
1,CC(C)(C)c1ccc(N=C2SCC(=O)N2Cc2cccs2)cc1,"inconclusive [activator, partial curve]"
2,O=C(Cc1c(F)cccc1Cl)Nc1ncc([N+](=O)[O-])s1,"inconclusive [activator, partial curve]"
3,COc1ccccc1-c1nnc(SCC(=O)Nc2ccccc2)o1,"inconclusive [activator, single point]"
4,CC(C)=CC(=O)Nc1nnc(-c2ccccc2C)s1,"inconclusive [activator, partial curve]"
5,CCOc1ccc(N/C(C)=C/C(=O)c2ccc(C)o2)cc1,"inconclusive [activator, partial curve]"
6,CN(C)c1ccc(/C=N/NC(=O)c2ccc3c(c2)OCO3)cc1,"inconclusive [activator, single point]"
7,COc1cc(SC)ccc1C(=O)Nc1cccc(C)n1,"inconclusive [activator, single point]"
8,COc1cccc(C=Nc2ccc(C)c(F)c2)c1O,inactive
9,O=C1CC(c2ccc(O)cc2)Oc2ccccc21 (centres undefined),"inconclusive [activator, single point]"
10,CCn1cc(C(=O)NCCCN2CCCC(C)C2)c(=O)c2cc(S(=O)(=O)N3CCOCC3)ccc21 (centres undefined),inactive
11,COc1ccc(S(=O)(=O)N(C)C)cc1NC(=O)CSc1nnc(-c2cccnc2)o1,inactive
12,Cc1cc(/C=C2/SC(=O)N(CC(=O)OC(C)C)C2=O)c(C)n1C,"inconclusive [activator, partial curve]"
13,Fc1ccc(Nc2nc3ccccc3s2)cc1,"inconclusive [activator, partial curve]"
14,CC(=O)N1CCN(c2ccc(NC(=O)c3ccco3)cc2)CC1,"inconclusive [activator, partial curve]"
15,O=C1CCCN1CCCNc1ncnc2sccc12,inactive
16,S=C(c1ccc(-c2ccccc2Cl)o1)N1CCOCC1,"inconclusive [activator, partial curve]"
17,CCOc1ccc(OCc2ccc(C(=O)Nc3cccnc3)o2)cc1,active: 0.562 µM
18,COc1ccc(/C=N\NC(=O)c2cccc(Br)c2)c(OC)c1,inactive
19,Clc1ccccc1CSc1nc2ccncc2[nH]1,"inconclusive [activator, partial curve]"
20,O=C(/C=C/c1ccccc1)Nc1sc2c(c1C(=O)O)CCC2,"inconclusive [activator, single point]"
21,C/C(=N\Nc1ccc(Cl)c(C(=O)O)c1)c1cccc([N+](=O)[O-])c1,"inconclusive [activator, single point]"
22,COc1ccc(-c2csc(N(C)C(=O)c3ccco3)n2)cc1,"inconclusive [activator, partial curve]"
23,CCn1c(COc2ccc(OC)cc2)nc2ccccc21,"inconclusive [activator, single point]"
24,CCc1ccc(-c2cn(C3CCCCC3)c(=S)[nH]2)cc1,"inconclusive [activator, partial curve]"
25,CCN(CC)S(=O)(=O)c1cc(C(=O)Nc2ccccc2[N+](=O)[O-])ccc1Cl,"inconclusive [activator, partial curve]"

row,Compound,Potency
1,O=C(NC1CCCCCC1)c1cc2c(=O)n3ccccc3nc2s1,"inconclusive [activator, single point]"
2,Cn1c(=O)c(C(=O)c2ccccc2)nc2ccccc21,inactive
3,CN(C)c1ccc(/C=N/N2CCN(c3ccccn3)CC2)cc1,"inconclusive [activator, partial curve]"
4,COc1cccc(NC(=O)COc2ccccc2)c1,"inconclusive [activator, single point]"
5,CCOC(=O)c1sc2nc(C)nc(NCc3ccc(F)cc3)c2c1C,inactive
6,Fc1cccc2sc(Nc3nc4cc5c(cc4s3)OCCO5)nc12,active: 3.98 µM
7,Cc1ccccc1N/N=C1\CCCNC1=O,"inconclusive [activator, partial curve]"
8,Cc1ccc(C(=O)Nc2ccn(Cc3ccc(F)cc3)n2)o1,"inconclusive [activator, single point]"
9,Cn1nnc(NC(=S)NC(=O)c2cc3ccccc3o2)n1,inactive
10,COc1cccc(C(=O)Nc2cc3c(cc2Br)OCCCO3)c1,active: 2.82 µM
11,CC(NC(=O)c1sc2ccccc2c1Cl)C1CCCO1 (centres undefined),"inconclusive [activator, single point]"
12,Cc1cnc(C(=O)Nc2ccccc2F)cn1,active: 3.55 µM
13,COCCNC(=O)c1cc2oc3ccccc3c2n1C,inactive
14,COc1cccc(-c2nc(CS(=O)(=O)CC(=O)Nc3ccc(C(C)=O)cc3)c(C)o2)c1,inactive
15,Cc1cc(C)n(-c2ccc(C(=O)NC3=NCCS3)cc2)n1,"inconclusive [activator, partial curve]"
16,COc1ccccc1/C=C/C(=O)Nc1cccnc1Cl,"inconclusive [activator, partial curve]"
17,Cc1ccc(N=C2NC(=O)/C(=C/c3cccn3C)S2)cc1,"inconclusive [activator, full curve, poor fit]"
18,Cc1cccc(C(=O)Nc2sc3c(c2C#N)CCCCC3)c1,active: 0.501 µM
19,COc1ccc(C(=O)c2oc3ccccc3c2N)cc1,active: 3.55 µM
20,Cn1c(C(=O)NCCc2c[nH]c3ccccc23)cc2sccc21,"inconclusive [activator, single point]"
21,COc1cc(C(=S)N2CCCC2)ccc1OCc1ccccc1,"inconclusive [activator, single point]"
22,COc1ccccc1C(=O)NNC(=O)c1cccc(C)c1,"inconclusive [activator, single point]"
23,CCCNc1c(F)c(F)c2c(C)c3ccccc3nc2c1F,"inconclusive [activator, partial curve]"
24,c1cc(-c2nnc(-c3ccncc3)o2)ccn1,inactive

# Reference: PubChem BioAssay AID485313 (National Center for Advancing Translational Sciences (NCATS), 2010)
